Some of the results follow.
Each sequence was assayed against no compound (DMSO) (assay: log2 fold change of degron read counts, EGFP-low vs EGFP+ sorted cells; higher = lower degron-EGFP level without compound (poor expression or instability)). Settings: compound: DMSO control; 18 h.
With FTCEQCGAQFTQKGNLLRHIKL the “log2 fold change of degron read counts” value was -2.57.
FNCPICGRVFTQKGNLLRHIKL was tested, and the “log2 fold change of degron read counts” value was 0.42.
In the case of FICPVCGAVFTQKGNLLRHIKL, the “log2 fold change of degron read counts” value is reported as 0.172.
With LECPICGFHCTQKGNLLRHIKL the “log2 fold change of degron read counts” value was 0.149.
In the case of FGCDVCGADFTQKGNLLRHIKL, the “log2 fold change of degron read counts” value is reported as -1.13.
For FRCDQCGAIFTQKGNLLRHIKL, the “log2 fold change of degron read counts” value was -1.11.
FICNQCGHMFTQKGNLLRHIKL was tested, and the “log2 fold change of degron read counts” value was -0.217.
In the case of LDCEICGFDCTQKGNLLRHIKL, the “log2 fold change of degron read counts” value is reported as -0.408.
For FRCNQCGRGFTQKGNLLRHIKL, the “log2 fold change of degron read counts” value was -0.174.
For FHCNICGARFTQKGNLLRHIKL, the “log2 fold change of degron read counts” value was -0.214.
With FFCEQCGAPFTQKGNLLRHIKL the “log2 fold change of degron read counts” value was -1.06.
For FFCEVCGAIFTQKGNLLRHIKL, the “log2 fold change of degron read counts” value was 0.0367.
With FCCEQCGARFTQKGNLLRHIKL the “log2 fold change of degron read counts” value was -1.76.
FRCDQCGAGFTQKGNLLRHIKL was tested, and the “log2 fold change of degron read counts” value was -1.37.
In the case of FGCNQCGRCFTQKGNLLRHIKL, the “log2 fold change of degron read counts” value is reported as 0.738.
For FICSVCGHIFTQKGNLLRHIKL, the “log2 fold change of degron read counts” value was 0.173.
For FECEICGAHFTQKGNLLRHIKL, the “log2 fold change of degron read counts” value was -2.35.
In the case of LMCEICGFPCTQKGNLLRHIKL, the “log2 fold change of degron read counts” value is reported as 0.237.
FICNVCGAHFTQKGNLLRHIKL was tested, and the “log2 fold change of degron read counts” value was -0.377.
For FNCDICGAPFTQKGNLLRHIKL, the “log2 fold change of degron read counts” value was 0.105.
For FVCEQCGAWFTQKGNLLRHIKL, the “log2 fold change of degron read counts” value was -0.44.
With FDCDICGAIFTQKGNLLRHIKL the “log2 fold change of degron read counts” value was 0.217.
With FICDVCGACFTQKGNLLRHIKL the “log2 fold change of degron read counts” value was -1.09.
FTCPICGASFTQKGNLLRHIKL was tested, and the “log2 fold change of degron read counts” value was -0.244.
FQCEICGATFTQKGNLLRHIKL was tested, and the “log2 fold change of degron read counts” value was -0.398.
FVCPICGRFFTQKGNLLRHIKL was tested, and the “log2 fold change of degron read counts” value was -0.0445.
With FLCDQCGADFTQKGNLLRHIKL the “log2 fold change of degron read counts” value was -0.968.
FYCNICGAMFTQKGNLLRHIKL was tested, and the “log2 fold change of degron read counts” value was 0.441.
In the case of FGCNQCGRKFTQKGNLLRHIKL, the “log2 fold change of degron read counts” value is reported as -0.0368.
FWCEICGAYFTQKGNLLRHIKL was tested, and the “log2 fold change of degron read counts” value was 0.539.
For FNCEICGRQFTQKGNLLRHIKL, the “log2 fold change of degron read counts” value was -1.18.
In the case of FCCEICGAYFTQKGNLLRHIKL, the “log2 fold change of degron read counts” value is reported as -1.4.

From the supplement of paper PMC12645437, “Orthogonal IMiD-Degron Pairs Induce Selective Protein Degradation in Cells” (ACS Chemical Biology, 2025)
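Note: jurkat cells carrying a lentiviral library of mutant zinc finger degrons fused to EGFP plus mCherry, mCherry+ cells FACS sorted, degron abundance counted by next-generation sequencing.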
